Data on one protein can be found in publication PMC3481835.

Substrate in this data set: C[C@]12CCC(=O)C=C1CC[C@@H]1[C@@H]2[C@@H](O)C[C@@]2(C)[C@H]1CC[C@]2(O)C(=O)CO
The data set is described as follows: cells, lysate or membranes named. The conditions noted are these: other: CYP3A4 supersomes, pH 7.4.

B1: CYP3A4 (Homo sapiens) (protein)
chain: MALIPDLAMETWLLLAVSLVLLYLYGTHSHGLFKKLGIPGPTPLPFLGNILSYHKGFCMFDMECHKKYGKVWGFYDGQQPVLAITDPDMIKTVLVKECYSVFTNRRPFGPVGFMKSAISIAEDEEWKRLRSLLSPTFTSGKLKEMVPIIAQYGDVLVRNLRREAETGKPVTLKDVFGAYSMDVITSTSFGVNIDSLNNPQDPFVENTKKLLRFDFLDPFFLSITVFPFLIPILEVLNICVFPREVTNFLRKSVKRMKESRLEDTQKHRVDFLQLMIDSQNSKETESHKALSDLELVAQSIIFIFAGYETTSSVLSFIMYELATHPDVQQKLQEEIDAVLPNKAPPTYDTVLQMEYLDMVVNETLRLFPIAMRLERVCKKDVEINGMFIPKGVVVMIPSYALHRDPKYWTEPEKFLPERFSKKNKDNIDPYIYTPFGSGPRNCIGMRFALMNMKLALIRVLQNFSFKPCKETQIPLKLSLGGLLQPEKPVVLKVESRDGTVSGA
Take B1: the Michaelis-Menten constant (Km) was determined as 148 ± 25 µM and the kcat is recorded as 27±2 pmol/min/pmol CYP3A4.

As a reminder, the Km is the concentration of substrate that gives half-maximal velocity.
